Like-named read-outs stand apart in the source and are kept apart here.
Biological target: T1, human recombinant SGK1 (Homo sapiens, UniProt O00141)
T1 sequence (O00141 60-431): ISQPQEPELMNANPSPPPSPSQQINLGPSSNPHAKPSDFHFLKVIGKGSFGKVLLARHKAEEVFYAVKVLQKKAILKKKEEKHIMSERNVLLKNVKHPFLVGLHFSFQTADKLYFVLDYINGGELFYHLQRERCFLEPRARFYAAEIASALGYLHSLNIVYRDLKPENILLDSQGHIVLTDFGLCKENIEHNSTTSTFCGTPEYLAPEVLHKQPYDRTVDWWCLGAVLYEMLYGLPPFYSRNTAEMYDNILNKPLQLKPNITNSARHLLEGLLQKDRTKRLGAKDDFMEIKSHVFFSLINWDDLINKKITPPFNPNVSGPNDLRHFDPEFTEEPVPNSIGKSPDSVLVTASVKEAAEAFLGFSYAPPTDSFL
Experiment: SGK1 inhibition assay (radioactive, 33P-ATP, MRC Unit Dundee)
Assay type: biochemical
Conditions: for SGK1 % Inhibition@10 µM: 10 µM compound; for IC50: SGK1

| SMILES | SGK1 % Inhibition@10 µM | IC50 (read-out: IC50) | IC50 |
| --- | --- | --- | --- |
| Nc1ccc(Sc2ccc(Nc3ncnc4[nH]ccc34)cc2)cc1 [VNG1.52] | 60.5% | 2.4 µM |  |
| CC(=O)c1ccc(Nc2ncnc3[nH]ccc23)cc1 [GMH1.12] |  | 5.5 µM |  |
| Oc1cccc(Nc2ncnc3[nH]ccc23)c1 [AEV1.40] | 65.3% | 6.5 µM |  |
| FC(F)(F)c1cccc(Oc2ccc(Nc3ncnc4[nH]ccc34)cc2)c1 [VNG1.65] | 62.6% | 3.4 µM |  |
| COC(=O)c1cc(Nc2ncnc3[nH]ccc23)ccc1Br [ERP2.14] | 52.6% |  | 6.4 µM |
| Clc1ccc(Nc2ncnc3[nH]ccc23)cc1 [VNG1.7] | 54.0% | 9.3 µM |  |
